The values that follow are results of earlier work, collected in publication PMC6151383 (Molecules : A Journal of Synthetic Chemistry and Natural …, 2017).

Common to all, as to design: method as in PMID 22365879
Data set [1] deals with Enterococcus faecalis J 14365/08. As to conditions: 24 h incubation; cited from earlier work.
For data set [2], the system named is ESBL-positive Klebsiella pneumoniae J 14368/08. Conditions: 24 h incubation; cited from earlier work.
A further data set relates to Candida krusei E28. As to conditions: 24 h incubation; cited from earlier work.
In data set [3] the test system is Klebsiella pneumoniae D 11750/08. Conditions: 24 h incubation; cited from earlier work.
Data set [4] deals with Staphylococcus aureus CCM 4516/08. Conditions: 24 h incubation; cited from earlier work.
For another data set, the system named is Candida tropicalis 156. As to conditions: 24 h incubation; cited from earlier work.
Data set [5] relates to Pseudomonas aeruginosa CCM 1961. Conditions: 24 h incubation; cited from earlier work.
Another data set concerns Candida glabrata 20/I. Conditions: 24 h incubation; cited from earlier work.
In the next data set the test system is Trichosporon asahii 1188. Conditions: 24 h incubation; cited from earlier work.
Data set [6] concerns Escherichia coli CCM 4517. Conditions: 24 h incubation; cited from earlier work.
Data set [7] relates to Lichtheimia corymbifera 272. As to conditions: 24 h incubation; cited from earlier work.
Data set [8] deals with Aspergillus fumigatus 231. Conditions: 24 h incubation; cited from earlier work.
Data set [9] concerns Candida albicans ATCC 44859. As to conditions: 24 h incubation; cited from earlier work.
Data set [10] relates to methicillin-resistant Staphylococcus aureus H 5996/08 (MRSA). Conditions: cited from earlier work.
Data set [11] has as its system Staphylococcus epidermidis H 6966/08. Conditions: 24 h incubation; cited from earlier work.

Each structure is given as a SMILES string. Values after ≈ are worked out from the molar mass of the structure shown. Some results are limits rather than exact numbers.

In the case of `O=S(=O)(Nc1ncccn1)c1ccc(N=Cc2cc(Cl)ccc2O)cc1` [Compound 2c, 4-[(5-Chloro-2-hydroxybenzylidene)amino]-N-(pyrimidin-2-yl)benzenesulfonamide], the “MIC EF 24 h” value in data set [1] is recorded as over 500 µM. Further, in [2], the “MIC KP-E 24 h” value is recorded as over 500 µM. In addition, the “MIC CK 24 h” value in the data set with Candida krusei E28 was over 500 µM. In data set [3], the “MIC KP 24 h” value is reported as over 500 µM. The “MIC SA 24 h” value in data set [4] was 250 µM (≈ 97.2 µg/mL). Moreover, in the data set on Candida tropicalis 156, the “MIC CT 24 h” value is over 500 µM. For the same compound, the “MIC PA 24 h” value in data set [5] is listed as over 500 µM. Also, the “MIC CG 24 h” value in the data set with Candida glabrata 20/I is given as 125 µM (≈ 48.6 µg/mL). Also, in the data set with Trichosporon asahii 1188, the “MIC TA 24 h” value is 62.5 µM (≈ 24.3 µg/mL). In data set [6], the “MIC EC 24 h” value is over 500 µM. Moreover, the “MIC LC 24 h” value in [7] is over 500 µM. The “MIC AF 24 h” value in data set [8] is listed as over 500 µM. Moreover, the “MIC CA 24 h” value in [9] is on record as 125 µM (≈ 48.6 µg/mL). In addition, the “MIC MRSA 24 h” value in data set [10] (24 h incubation) is recorded as 125 µM (≈ 48.6 µg/mL). For the same compound, the “MIC MRSA 48 h” value in [10] (48 h incubation) was 125 µM (≈ 48.6 µg/mL). Besides, in data set [11], the “MIC SE 24 h” value was over 500 µM.
